Source: patent publication US12274759B2, “Affibody proteins specific for B7-H3 (CD276)” (THE BOARD OF TRUSTEES OF THE LELAND STANFORD JUNIOR …, priority 2018, dated 2025)

Target: T1, human B7-H3 (MS1 B7-H3+ / MS1hB7-H3 cells) (Homo sapiens, UniProt Q5ZPR3)
T1 construct: expressed in transfected cells; host or cells: MS1 (MILE SVEN 1) mouse vascular endothelial cells, ATCC CRL2279
T1 sequence (Q5ZPR3 29-534): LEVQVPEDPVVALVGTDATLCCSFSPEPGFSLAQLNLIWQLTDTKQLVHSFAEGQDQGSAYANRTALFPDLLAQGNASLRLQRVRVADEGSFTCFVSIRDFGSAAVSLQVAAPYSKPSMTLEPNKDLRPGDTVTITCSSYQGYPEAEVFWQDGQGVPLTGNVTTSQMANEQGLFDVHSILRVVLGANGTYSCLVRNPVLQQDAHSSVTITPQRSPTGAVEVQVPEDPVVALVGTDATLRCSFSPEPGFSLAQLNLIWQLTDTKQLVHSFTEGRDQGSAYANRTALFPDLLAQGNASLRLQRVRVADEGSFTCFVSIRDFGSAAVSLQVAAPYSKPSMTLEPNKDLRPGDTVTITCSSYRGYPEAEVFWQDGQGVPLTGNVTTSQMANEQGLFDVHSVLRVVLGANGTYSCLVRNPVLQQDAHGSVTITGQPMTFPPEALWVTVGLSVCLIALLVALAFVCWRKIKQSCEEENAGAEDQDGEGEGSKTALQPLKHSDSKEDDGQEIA
Experiment: Flow chamber cell attachment assay under flow shear stress, MS1 cells expressing human B7-H3
Format: cell-based
Experimental: Binding specificity of MB-B7-H3-affibody to the target B7-H3 was also assessed in cell culture experiments under flow shear stress conditions simulating flow in blood capillaries by using a parallel flow chamber experimental set-up (see FIG. 4). MS1 B7-H3+ cells between passages 2 and 4 were used in all experiments. Before flow chamber experiment, FACS analysis was performed in order to confirm B7-H3 expression of MS1 B7-H3+ cells. The geometric mean fluorescence intensity was determined using FlowJo software. MS1 B7-H3+ cells were grown on coated (Sigmacote; Sigma, St Louis, Mo) neutral-charged glass microscope slides (VWR, USA) for 24 hours and mounted on a parallel plate flow chamber (GlycoTech, Rockville, Md). A syringe infusion and withdrawal pump (Genie Plus; Kent Scientific, Torrington, Conn) was used to maintain the flow rate of 0.6 mL/min, corresponding to a wall shear stress rate of 100 sec-1, similar to that in tumor capillaries. The glass microscope slides were inverted and positioned in the parallel flow chamber apparatus in order to allow microbubbles to float and then bind to B7-H3-expressing cells. In brief, solutions were passed over cells in the following order; PBS for 2 minutes; 5×10^7 of either MB-B7-H3-affibody, MB-anti-B7-H3-antibody, or MB-Non-targeted in PBS for 4 minutes; and finally washing with PBS for 2 minutes. The adhered microbubble number on the MS1 B7-H3+ cells monolayer was quantified manually by counting attached microbubbles on MS1 B7-H3+ cells with a phase-contrast bright-field microscope (Axiovert 25; Carl Zeiss, Thornwood, NY; original magnification, ×100) to assess the number of attached microbubbles per cell. At least five random fields of view of these slides were immediately imaged. Note that microbubbles can be visualized as small, rounded particles (yellow arrow) and were considered to be attached to MS1 B7-H3+ cells when there was direct contact with the cells without free floating. The flow chamber cell attachment study confirmed high binding specificity of MB-B7-H3-affibody to MS1 B7-H3+ cells.
Flow chamber cell attachment assay. Binding specificity of MBABY-B7-H3 and MBAb-B7-H3 to the target B7-H3 was first assessed in cell culture experiments under flow shear stress conditions simulating flow in blood capillaries by using a flow chamber experimental set-up. Please see Supplementary Methods for more details.
ABYB7-H3 coated microbubbles (MBABY-B7-H3) attach to B7-H3 expressed on endothelial cells. To mimic the in vivo shear stress that would occur on bound MB by blood flow in the capillaries, an in vitro flow chamber cell attachment assay of MB using MS1hB7-H3 cells was performed (FIG. 11A). Biotinylated ABY was conjugated to streptavidin MB (MBABY-B7-H3). […]

average number of microbubbles attached per MS1 B7-H3+ cell (Example 1, 5×10^7 MB, flow rate 0.6 mL/min, wall shear stress rate 100 sec-1): 8.52±1.42 MB/cell
MB attachment to MS1hB7-H3 cells after receptor blocking (Example 3, cells incubated with free ABYB7-H3 (5 μg/mL) prior to assay): 10.9±2.9 MB/cell
number of MB attached to MS1hB7-H3 cells (Example 3, flow shear stress conditions): 8.5±1.4 MB/cell
MB attachment to MS1hB7-H3 cells without blocking (Example 3, non-blocking group of the blocking study): 26.3±4.4 MB/cell
B1: MBABY-B7-H3: contrast microbubbles functionalized with ABYB7-H3 (biotinylated ABY on streptavidin-coated, lipid-shelled perfluorocarbon MB) (conjugate)
chain: AEAKYAKEKIFAVGEIYWLPNLTHGQIMAFIAALNDDPSQSSELLSEAKKLNDSQAPKHHHHHH
